From publication PMC2902271 (Nature structural & molecular biology, 2009)

Molecular target: the molecule itself
Test: SEC-MALS

B1: STIM1^CT (cytoplasmic region of human STIM1) (domain or fragment)
chain: not shown
- stoichiometry N: 2
